{
  "source": "paper PMC4336329",
  "about": "(PLoS ONE, 2015)",
  "note": "About 2,200 (0.71%) of roughly 310,000 compounds showed an effect of 50% or more. The effect is printed as a negative number. The list shows a part of the results.",
  "data": [
    {"molecular_target": "human ether-à-go-go-related gene (hERG) potassium channel (human, UniProt Q12809)", "sequence (Q12809 whole entry, looked up)": "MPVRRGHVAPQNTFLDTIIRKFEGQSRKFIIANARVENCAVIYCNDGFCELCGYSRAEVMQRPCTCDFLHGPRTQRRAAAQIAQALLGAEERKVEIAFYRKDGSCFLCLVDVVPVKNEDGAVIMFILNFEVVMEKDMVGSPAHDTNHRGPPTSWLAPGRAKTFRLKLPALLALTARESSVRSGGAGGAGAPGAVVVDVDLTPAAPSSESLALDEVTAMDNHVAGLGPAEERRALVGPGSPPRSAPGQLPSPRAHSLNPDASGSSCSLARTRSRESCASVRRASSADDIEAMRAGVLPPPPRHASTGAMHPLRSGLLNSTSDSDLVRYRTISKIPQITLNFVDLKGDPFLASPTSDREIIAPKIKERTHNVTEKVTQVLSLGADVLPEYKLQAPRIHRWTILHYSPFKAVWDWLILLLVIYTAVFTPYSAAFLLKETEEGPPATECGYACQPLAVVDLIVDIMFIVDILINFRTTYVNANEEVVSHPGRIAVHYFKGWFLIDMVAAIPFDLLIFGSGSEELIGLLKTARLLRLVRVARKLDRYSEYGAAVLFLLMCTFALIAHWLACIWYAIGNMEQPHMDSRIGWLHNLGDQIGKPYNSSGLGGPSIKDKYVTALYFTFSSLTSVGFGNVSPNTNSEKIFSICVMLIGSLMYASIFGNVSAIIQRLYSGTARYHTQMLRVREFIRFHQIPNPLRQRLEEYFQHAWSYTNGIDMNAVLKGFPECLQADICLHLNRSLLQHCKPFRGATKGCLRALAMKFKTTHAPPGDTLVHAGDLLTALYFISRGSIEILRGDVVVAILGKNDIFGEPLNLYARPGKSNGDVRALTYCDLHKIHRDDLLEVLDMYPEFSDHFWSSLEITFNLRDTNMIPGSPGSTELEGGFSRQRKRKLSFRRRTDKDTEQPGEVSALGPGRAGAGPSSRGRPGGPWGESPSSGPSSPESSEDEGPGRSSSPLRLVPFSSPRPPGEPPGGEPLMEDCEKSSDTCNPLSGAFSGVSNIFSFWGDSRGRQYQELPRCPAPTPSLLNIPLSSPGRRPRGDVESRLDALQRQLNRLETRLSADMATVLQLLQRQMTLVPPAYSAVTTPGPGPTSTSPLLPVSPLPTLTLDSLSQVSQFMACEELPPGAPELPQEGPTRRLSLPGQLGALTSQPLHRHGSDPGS", "experiment": "primary screen, population patch clamp on CHO cells stably expressing hERG", "units": {"hERG current change (%, negative = inhibition) at 1uM": "%"}, "values": [
      {"smiles": "S=C1NC(c2cccs2)=CC(c2ccc(Br)cc2)N1", "note": "(centres unmarked)", "hERG current change (%, negative = inhibition) at 1uM": 7.78},
      {"smiles": "CC(NS(=O)(=O)/C=C/c1ccccc1)C(=O)NCCc1ccc(S(N)(=O)=O)cc1", "note": "(centres unmarked)", "hERG current change (%, negative = inhibition) at 1uM": 11.1},
      {"smiles": "Cn1c(=O)cc(-c2ccccc2)c2ccccc21", "hERG current change (%, negative = inhibition) at 1uM": -2.54},
      {"smiles": "CCOc1ccc(NC(=S)N2CCc3cc(OC)c(OC)cc3C2COc2ccc3c(C)cc(=O)oc3c2)cc1", "note": "(centres unmarked)", "hERG current change (%, negative = inhibition) at 1uM": 2.81},
      {"smiles": "Cc1c(-c2cccc(Cl)c2)nc2ccccc2c1C(=O)OCC(=O)Nc1ccc2c(c1)OCO2", "hERG current change (%, negative = inhibition) at 1uM": 12.7},
      {"smiles": "CCNc1cc(N2CCN(C)CC2)ccc1[N+](=O)[O-]", "hERG current change (%, negative = inhibition) at 1uM": -1.45},
      {"smiles": "Cc1ccc(S(=O)(=O)Cc2ccc(C(=O)N3CCN(c4cc(C)ccc4C)CC3)o2)cc1", "hERG current change (%, negative = inhibition) at 1uM": 12.3},
      {"smiles": "CCOc1ccc(Cc2nn[nH]n2)cc1", "hERG current change (%, negative = inhibition) at 1uM": 3.24},
      {"smiles": "Cc1n[nH]c(C)c1CN(C)C(=O)C1CCC(=O)N(CCc2cccc(F)c2)C1", "note": "(centres unmarked)", "hERG current change (%, negative = inhibition) at 1uM": 10.7},
      {"smiles": "COc1ccc(CNC(=O)C(OC(=O)c2ccco2)c2ccc(F)cc2)cc1", "note": "(centres unmarked)", "hERG current change (%, negative = inhibition) at 1uM": 12.6},
      {"smiles": "COC(=O)C1=C(C)N(C)C(C)=C(C(=O)OC)C1c1ccc(Cl)cc1", "hERG current change (%, negative = inhibition) at 1uM": 17.2},
      {"smiles": "COc1ccccc1NC(CC(=O)c1ccccc1)C(=O)OCC(=O)c1ccc(F)cc1", "note": "(centres unmarked)", "hERG current change (%, negative = inhibition) at 1uM": -11.1},
      {"smiles": "COc1ccc(OCCOCCN2CCc3ccccc3C2)cc1", "hERG current change (%, negative = inhibition) at 1uM": -46.2},
      {"smiles": "CC(C)(C)NCc1cc(Br)ccc1OC1CCCC1.Cl", "hERG current change (%, negative = inhibition) at 1uM": -0.406},
      {"smiles": "Cc1cc(-c2nnc3n2N=C(c2ccc(-c4ccccc4)cc2)CS3)n[nH]1", "hERG current change (%, negative = inhibition) at 1uM": 10.1},
      {"smiles": "CC(C)(C)c1nc(SCC(=O)N2CCCC2)c2ccccc2n1", "hERG current change (%, negative = inhibition) at 1uM": 15.3},
      {"smiles": "O=C(COC(=O)c1cccc([N+](=O)[O-])c1)NC1CCCC1", "hERG current change (%, negative = inhibition) at 1uM": 14},
      {"smiles": "CCOC(=O)N1CCN(C(=O)c2ccc(NC(C)=O)cc2)CC1", "hERG current change (%, negative = inhibition) at 1uM": 11},
      {"smiles": "CCC1CCCCN1CCn1c(=S)[nH]c2cc(OC)c(OC)cc2c1=O", "note": "(centres unmarked)", "hERG current change (%, negative = inhibition) at 1uM": -18.7},
      {"smiles": "Cc1ccc(NC(=O)CNc2cccc(S(=O)(=O)N3CCOCC3)c2)cc1F", "hERG current change (%, negative = inhibition) at 1uM": 7.05},
      {"smiles": "Cc1cc(Cc2cc(C)c(N)cc2C)c(C)cc1N", "hERG current change (%, negative = inhibition) at 1uM": 8.22},
      {"smiles": "CC(C)NS(=O)(=O)c1ccc(OCC(=O)NCc2ccc3c(c2)OCO3)c(Cl)c1", "hERG current change (%, negative = inhibition) at 1uM": 6.8},
      {"smiles": "O=C(COC(=O)c1ccccc1[N+](=O)[O-])Nc1nnc(-c2ccccc2)o1", "hERG current change (%, negative = inhibition) at 1uM": 17.3},
      {"smiles": "CC(C)(O)[C@H](O)COc1c2occc2cc2ccc(=O)oc12", "hERG current change (%, negative = inhibition) at 1uM": 12.2},
      {"smiles": "CN(CC(=O)Nc1ccccc1Br)C(=O)CN1CCN(Cc2ccc(Cl)cc2)CC1", "hERG current change (%, negative = inhibition) at 1uM": -33.1},
      {"smiles": "Cc1cccc(C)c1NC(=O)CSc1ccc([N+](=O)[O-])cn1", "hERG current change (%, negative = inhibition) at 1uM": 8.3},
      {"smiles": "CCOC(=O)C1CN(S(=O)(=O)c2ccc(C)cc2)CCN1S(=O)(=O)c1ccc(C)cc1", "note": "(centres unmarked)", "hERG current change (%, negative = inhibition) at 1uM": 4.75},
      {"smiles": "CCOc1ccc(CCNC(=O)c2cc3sc(Cl)cc3n2C)cc1OCC", "hERG current change (%, negative = inhibition) at 1uM": 13.7},
      {"smiles": "C=CCn1c(SCC(=O)Nc2ccc(C(=O)OCC)cc2)nnc1-c1sc(N)nc1C", "hERG current change (%, negative = inhibition) at 1uM": -3.7},
      {"smiles": "COc1ccc(C(=O)COC(=O)c2ccco2)cc1", "hERG current change (%, negative = inhibition) at 1uM": 8.17},
      {"smiles": "Cc1[nH]c2ccccc2c1/C=C(\\C#N)C(=O)NC1CC1", "hERG current change (%, negative = inhibition) at 1uM": 6.42},
      {"smiles": "COc1cc(CCN2C(=O)c3cccc4cccc(c34)C2=O)c(S(=O)(=O)NCCO)cc1OC", "hERG current change (%, negative = inhibition) at 1uM": 12.5},
      {"smiles": "Cc1cc(C)n(/N=C/c2c[nH]c3ccccc23)c(=O)c1", "hERG current change (%, negative = inhibition) at 1uM": 12},
      {"smiles": "CCc1ccc(NSc2ccccc2[N+](=O)[O-])cc1", "hERG current change (%, negative = inhibition) at 1uM": 14.4},
      {"smiles": "Cc1cccc2nc(CSc3nc4ccccc4[nH]3)cn12", "hERG current change (%, negative = inhibition) at 1uM": -0.486},
      {"smiles": "Cc1ccc(NC(=O)CC(=O)NCCN2CCOCC2)cc1", "hERG current change (%, negative = inhibition) at 1uM": 8.48},
      {"smiles": "Cc1cc(NC(=O)c2c(F)cccc2Cl)no1", "hERG current change (%, negative = inhibition) at 1uM": 7.96},
      {"smiles": "COC(=O)c1ccn(CSc2cc(Cl)ccc2Cl)n1", "hERG current change (%, negative = inhibition) at 1uM": 4.98},
      {"smiles": "O=C(CCNC(=O)Cn1cnc2ccccc2c1=O)NCC1CCCO1", "note": "(centres unmarked)", "hERG current change (%, negative = inhibition) at 1uM": 1.44},
      {"smiles": "Cc1cc(C(=O)CSc2nc3ccccc3n2C)c(C)n1C", "hERG current change (%, negative = inhibition) at 1uM": 12.9},
      {"smiles": "CSc1nnc(-c2cccn(Cc3ccccc3)c2=O)o1", "hERG current change (%, negative = inhibition) at 1uM": 10.5},
      {"smiles": "COCCn1c(C(F)(F)F)ccc(NC(=O)c2ccccc2)c1=O", "hERG current change (%, negative = inhibition) at 1uM": 3.83},
      {"smiles": "C=CCn1c(O)c(N=NC(=O)CNC(=O)c2cccs2)c2ccccc21", "hERG current change (%, negative = inhibition) at 1uM": 0.478},
      {"smiles": "COc1cccc(CN(C)C(=O)Nc2cccc(C(F)(F)F)c2)c1OC", "hERG current change (%, negative = inhibition) at 1uM": 9.71}
    ]}
  ]
}
